Molecules are shown by their SMILES. Out of some 52,000 compounds screened, about 4,300 (8.3%) were called active. No stated cut-off is given here; in the data, active means survival mostly below about 52% (no sharp cut-off); inactive means mostly above about 56%. The list shows a part of the results.

This assay relates to DeltatarO mutant. Briefly: S. aureus survival, RN4220 and DeltatarO strains – OD600, teichoic acid synthesis inhibitors, primary screen (AID 463173). The following applies: S. aureus RN4220 wild type/DeltatarO growth, OD600, 18 h, active compounds read low, screened at 18.75 µg/mL (by protocol).
For the molecule `O=C(NC1CC(=O)N(c2ccc(F)cc2)C1)c1ccco1` (centres undefined), the survival was inactive: 95%.
The result for `COc1ccccc1C1CC(=O)NC(C)=C1C(=O)OC1CCCCCC1` (centres undefined) reads inactive: 86%; that for `N#Cc1cccc(C(c2nnnn2Cc2ccccc2)N2CCCC2)c1` (centres undefined), inactive: 103%; that for `O=C(O)C1CCN(C(=O)c2ccc(-c3ccccc3)cc2)CC1`, inactive: 108%.
The result for `CC(=O)Nc1nc(-c2cccs2)nc2c1c(=O)oc1ccccc12` reads inactive: 92%; that for `O=C(NCc1cccnc1)c1nn(-c2ccc(Cl)cc2)nc1CO`, inactive: 93%.
As to `COc1cc(Cl)c(C)cc1Nc1nc2ccccc2c2nnc(C)n12`, the survival was inactive: 124%.
With `COc1ccc2nc(N(Cc3cccnc3)C(C)=O)sc2c1` the figure was inactive: 89%; with `COc1ccc(C2CC(=O)N3CN(C4CCCCC4)CSC3=C2C#N)c(OC)c1` (centres undefined), inactive: 91%.
In the case of `CC1=C(C)C/S(=N\S(=O)(=O)c2ccc(Cl)cc2)N(S(=O)(=O)c2ccc(Cl)cc2)C1` (centres undefined), the survival is inactive: 64%.
As to `COC(=O)c1ccc(NC(=O)CSc2ccc(-c3sc(-c4ccccc4)nc3C)nn2)cc1`, the survival is active: 56%.
The result for `CCC(Oc1ccccc1-c1nnc(-c2ccccc2)o1)C(=O)Nc1ccc(C(C)=O)cc1` (centres undefined) reads inactive: 112%; that for `COC(=O)c1cc2oc(C)cc2n1Cc1ccc(Br)cc1F`, inactive: 75%; that for `CCc1ccc(-n2c(=O)c3cccnc3n2CC(=O)NCc2ccccc2)cc1`, inactive: 90%.
Regarding `CCc1ccc(-n2c(=O)c3c4c(sc3n(Cc3ccccc3C#N)c2=O)CCC4)cc1`, the survival was inactive: 146%.
Regarding `O=C1CC(NCC2CCCCC2)C(=O)N1c1ccccc1` (centres undefined), the survival is inactive: 92%.
In the case of `COc1ccc(S(=O)(=O)NCCc2nnc3ccc(SCC(=O)Nc4ccccc4C)nn23)cc1`, the survival is inactive: 121%.
With `COC(=O)c1c(C)oc2ccc(N(C(=O)c3ccncc3)S(=O)(=O)c3ccc(OC)cc3)cc12` the figure was inactive: 50%; with `COc1cccc(OC)c1C(=O)N1CCNCC1`, inactive: 92%.
The result for `O=C(Nc1cccc(C(F)(F)F)c1)c1ccc2c(c1)nnn2C1CCCC1` reads inactive: 82%; that for `Cc1ccccc1NC(=O)CN1CCCC1`, inactive: 70%; that for `Cc1cccc(N2CCN(S(=O)(=O)c3c(C)nc4scc(C)n4c3=O)CC2)c1C`, inactive: 130%.
Turning to `COc1ccccc1NC(=O)c1ccc(COc2ccc(C)c(C)c2)o1`, the survival is active: 1%.
`CCCCn1c(=O)c2oc3ccccc3c2n(CC(=O)Nc2ccc(CC)cc2)c1=O`: the survival was inactive: 67%.
As to `Cn1cc(CN(C(=O)Nc2ccccc2)C2CCCCC2)c2ccccc21`, the survival is active: -14%.
Consider `COc1ccc(-c2nc3sc(CCNC(=O)c4ccco4)c(C)n3n2)cc1`, for which the survival is inactive: 99%.
The result for `CCS(=O)(=O)Nc1ccc(-c2cn3ccsc3n2)cc1` reads active: 17%; that for `Cn1c(Cn2cnc3ccccc32)nnc1SCC(=O)CC(=O)Nc1ccccc1`, inactive: 63%; that for `CN(C)c1ccc(CNS(=O)(=O)c2ccc(-c3cc(C(F)(F)F)on3)s2)cc1`, inactive: 60%.
Take `COc1cc2c(cc1OC)CN(C(=O)Nc1ccccc1)CC2`: the survival is inactive: 63%.
With `Cc1c(C(=O)NCc2cccc(Br)c2)oc2ccc3c(c12)C(=O)CC(C)(C)O3` the figure was inactive: 61%; with `CCN(CC)CCCNC(=O)c1ccc(Cn2c(SCc3ccccc3)nc3cccnc32)cc1`, inactive: 57%.
The result for `Cn1c(=O)n(Cc2c(F)cccc2Cl)c(=O)c2c1nc1n2CCN1c1ccc(F)cc1` reads inactive: 103%; that for `Nc1nn(-c2ccccc2)nc1C(=O)OCc1ccc(Cl)cc1`, active: 44%.
Turning to `COc1ccc(-c2nc3sc(CCNC(=O)C(=O)Nc4cccc(NC(C)=O)c4)c(C)n3n2)cc1`, the survival is inactive: 82%.
The result for `COc1c(C)cccc1C(=O)Nc1ccc(-c2nc3ccccc3s2)c(Cl)c1` reads inactive: 68%.
The result for `COc1ccc(C2=C(N3CCN(c4cccc(C)c4C)CC3)c3ccccc3C2=O)cc1` reads inactive: 87%.
Take `Cc1ccc(NC(=O)CC2Oc3ccccc3NC2=O)cc1C` (centres undefined): the survival is inactive: 96%.
With `Cc1c(C(=O)NCc2cccc(Cl)c2)sc2nc3n(c(=O)c12)CCCC3` the figure was inactive: 56%; with `COc1ccc(CCNC(=O)CN2C(=O)COc3ccc(S(=O)(=O)N4CCCC4)cc32)c(OC)c1`, inactive: 84%; with `COc1ccc(-c2cnnn2-c2ccc(NC(=O)c3ccccc3OC)cc2)cc1`, inactive: 107%.
On to `N#Cc1ccc(-c2ccc(F)cc2)n(CC(=O)N2CCC(C(N)=O)CC2)c1=O`, for which the survival is inactive: 108%.
In the case of `O=C(Nc1ccccc1Cl)N1CCC(CN2CCCC2)CC1`, the survival was inactive: 61%.
With `N#CC(C#N)=Cc1cn(CC(=O)N2CCOCC2)c2ccccc12` the figure was inactive: 100%; with `CC1=C(c2ccc(F)cc2)S(=O)(=O)N=C1N1CCC(C(=O)NCCc2cccc(C)c2)CC1`, inactive: 85%; with `COc1cccc(-c2nc(CS(=O)(=O)CC(=O)NCc3cccc(Cl)c3)c(C)o2)c1`, inactive: 72%.
The result for `Cc1ccc(CSc2ncc(Cl)c(C(=O)Nc3nnc(C)s3)n2)cc1` reads active: 32%; that for `CC1=C(C(=O)NCc2ccccc2F)C2(CCCCC2)OC1=O`, inactive: 71%.
With `COCCNC(=O)c1nn(-c2ccc(C)cc2)c(=O)c2c1c1ccccc1n2C` the figure was inactive: 87%; with `Cc1ccc(CCNC(=O)C2CCCN(c3nnc(C)c4c(C)n(-c5ccccc5)nc34)C2)cc1` (centres undefined), inactive: 80%; with `CCOC(=O)c1c(C)n(-c2ccccc2)c2ccc(OC(=O)COc3ccc(Cl)cc3)cc12`, inactive: 59%.
As for `Cc1ccccc1-c1nc(CN2CCC(C(=O)NCc3ccc(F)cc3)CC2)c(C)o1`, the survival is inactive: 109%.
On to `CC(=O)c1ccc(NC(=O)c2ccc3c(c2)N(Cc2cccc(Cl)c2)C(=O)c2ccccc2S3=O)cc1` (centres undefined), for which the survival was inactive: 67%.
On to `Cc1c(C(=O)NCc2ccccc2Cl)sc2ncnc(N(C)C3CCCCC3)c12`, for which the survival is inactive: 83%.
The result for `Cc1ccn2c(Nc3ccc4c(c3)OCCO4)c(-c3ccc(C)o3)nc2c1` reads active: 58%.
With `Cc1cc(Nc2ccccc2C)n2nc(Cc3ccc(Cl)cc3)nc2n1`, the survival is inactive: 64%.
The result for `COc1ccc(NC(=O)c2cc3c(s2)-c2c(C)cccc2OC3)cc1Cl` reads inactive: 80%.
The result for `CC(Sc1nnc2c(n1)[nH]c1ccccc12)C(=O)NC1CC1` (centres undefined) reads inactive: 60%; that for `COc1ccccc1CNc1ccccc1F`, inactive: 70%.

The values are drawn from PubChem BioAssay AID463173 (ICCB-Longwood Screening Facility, Harvard Medical School, 2010).
